Laboratory results published in patent US10618918B2, “Substituted boronic acids as antimicrobials” (priority 2015, dated 2020).
At least one read-out could not be matched to a standard name with certainty.

Experiments:
ec308 SHV-5 = test: Tigemonam potentiation (MPC@4), strain ec308 SHV-5; type: cell-based; settings: minimum BLI concentration inhibiting growth with tigemonam 4 μg/mL; tested up to 40 μg/mL
ec302 TEM-10 = test: Tigemonam potentiation (MPC@4), strain ec302 TEM-10; type: cell-based; settings: minimum BLI concentration inhibiting growth with tigemonam 4 μg/mL; tested up to 40 μg/mL
EC1010 CMY-6 = test: Tigemonam potentiation (MPC@4), strain EC1010 CMY-6; type: cell-based; settings: minimum BLI concentration inhibiting growth with tigemonam 4 μg/mL; tested up to 40 μg/mL
KP1010 SHV-12 = test: Tigemonam potentiation (MPC@4), strain KP1010 SHV-12; settings: minimum BLI concentration inhibiting growth with tigemonam 4 μg/mL; tested up to 40 μg/mL
KP1005 CTX-M-14 = test: Aztreonam potentiation (MPC@4), strain KP1005 CTX-M-14; settings: minimum BLI concentration inhibiting growth with aztreonam 4 μg/mL; tested up to 40 μg/mL
KP1009 CTX-M-15 = test: Tigemonam potentiation (MPC@4), strain KP1009 CTX-M-15; settings: minimum BLI concentration inhibiting growth with tigemonam 4 μg/mL; tested up to 40 μg/mL

Row | SMILES | TIG MPC4 SHV-5 ec308 (ec308 SHV-5) | TIG MPC4 TEM-10 ec302 (ec302 TEM-10) | TIG MPC4 CMY-6 EC1010 (EC1010 CMY-6) | TIG MPC4 SHV-12 KP1010 (KP1010 SHV-12) | AZT MPC4 CTX-M-14 KP1005 (KP1005 CTX-M-14) | TIG MPC4 CTX-M-15 KP1009 (KP1009 CTX-M-15)
1 | O=C([O-])c1c(OCC(F)F)ccc2c1O[B-](O)(O)CC2.[Na+].[Na+] [Compound 29, Disodium; 8-(2,2-difluoroethoxy)-4,4-dihydroxy-5-oxa-4-boranuidabicyclo[4.4.0]deca-1(6),7,9-triene-7-carboxylate] | Y (Y = 5 μg/mL < MPC@4 ≤ 20 μg/mL) | Z (Z = MPC@4 > 20 μg/mL) | X (X = MPC@4 ≤ 5 μg/mL) | Y (Y = 5 μg/mL < MPC@4 ≤ 20 μg/mL) | Y (Y = 5 μg/mL < MPC@4 ≤ 20 μg/mL) | Z (Z = MPC@4 > 20 μg/mL)
2 | O=C([O-])c1c(OCC2CC2)ccc2c1O[B-](O)(O)CC2.[Na+].[Na+] [Compound 45, Disodium; 8-(cyclopropylmethoxy)-4,4-dihydroxy-5-oxa-4-boranuidabicyclo[4.4.0]deca-1(6),7,9-triene-7-carboxylate] | Z (Z = MPC@4 > 20 μg/mL) | Z (Z = MPC@4 > 20 μg/mL) | X (X = MPC@4 ≤ 5 μg/mL) | X (X = MPC@4 ≤ 5 μg/mL) | Z (Z = MPC@4 > 20 μg/mL) | Z (Z = MPC@4 > 20 μg/mL)
3 | O=C([O-])c1c(OCc2ccncc2)ccc2c1O[B-](O)(O)CC2.[Na+].[Na+] [Compound 28, Disodium; 4,4-dihydroxy-8-(4-pyridylmethoxy)-5-oxa-4-boranuidabicyclo[4.4.0]deca-1(6),7,9-triene-7-carboxylate] | X (X = MPC@4 ≤ 5 μg/mL) | Y (Y = 5 μg/mL < MPC@4 ≤ 20 μg/mL) | X (X = MPC@4 ≤ 5 μg/mL) | X (X = MPC@4 ≤ 5 μg/mL) | Z (Z = MPC@4 > 20 μg/mL) | Z (Z = MPC@4 > 20 μg/mL)
4 | CN(C)CCOc1ccc2c(c1C(=O)[O-])O[B-](O)(O)CC2.[Na+].[Na+] [Compound 48, Disodium; 8-[2-(dimethylamino)ethoxy]-4,4-dihydroxy-5-oxa-4-boranuidabicyclo[4.4.0]deca-1(6),7,9-triene-7-carboxylate] | Z (Z = MPC@4 > 20 μg/mL) | Z (Z = MPC@4 > 20 μg/mL) | X (X = MPC@4 ≤ 5 μg/mL) | Y (Y = 5 μg/mL < MPC@4 ≤ 20 μg/mL) | Z (Z = MPC@4 > 20 μg/mL) | Z (Z = MPC@4 > 20 μg/mL)
5 | NCC#CCOc1ccc2c(c1C(=O)[O-])O[B-](O)(O)CC2.[Na+].[Na+] [Compound 32, Disodium; 8-(4-aminobut-2-ynoxy)-4,4-dihydroxy-5-oxa-4-boranuidabicyclo[4.4.0]deca-1(6),7,9-triene-7-carboxylate] | Y (Y = 5 μg/mL < MPC@4 ≤ 20 μg/mL) | Z (Z = MPC@4 > 20 μg/mL) | X (X = MPC@4 ≤ 5 μg/mL) | X (X = MPC@4 ≤ 5 μg/mL) | Y (Y = 5 μg/mL < MPC@4 ≤ 20 μg/mL) | Y (Y = 5 μg/mL < MPC@4 ≤ 20 μg/mL)
6 | CCOc1ccc2c(c1C(=O)[O-])O[B-](O)(O)CC2.[Na+].[Na+] [Compound 57, Disodium; 8-ethoxy-4,4-dihydroxy-5-oxa-4-boranuidabicyclo[4.4.0]deca-1(6),7,9-triene-7-carboxylate] | Y (Y = 5 μg/mL < MPC@4 ≤ 20 μg/mL) | Y (Y = 5 μg/mL < MPC@4 ≤ 20 μg/mL) | X (X = MPC@4 ≤ 5 μg/mL) | X (X = MPC@4 ≤ 5 μg/mL) | Y (Y = 5 μg/mL < MPC@4 ≤ 20 μg/mL) | Y (Y = 5 μg/mL < MPC@4 ≤ 20 μg/mL)
7 | O=C([O-])c1c(CO)ccc2c1O[B-](O)(O)CC2.[Na+].[Na+] [Compound 49, Disodium; 4,4-dihydroxy-8-(hydroxymethyl)-5-oxa-4-boranuidabicyclo[4.4.0]deca-1(6),7,9-triene-7-carboxylate] | X (X = MPC@4 ≤ 5 μg/mL) | Y (Y = 5 μg/mL < MPC@4 ≤ 20 μg/mL) | X (X = MPC@4 ≤ 5 μg/mL) | X (X = MPC@4 ≤ 5 μg/mL) | X (X = MPC@4 ≤ 5 μg/mL) | X (X = MPC@4 ≤ 5 μg/mL)
8 | COc1c(Cl)cc2c(c1C(=O)O)OB(O)CC2 [Compound 41, 6-Chloro-2-hydroxy-7-methoxy-3,4-dihydro-1,2-benzoxaborinine-8-carboxylic acid] | X (X = MPC@4 ≤ 5 μg/mL) | Y (Y = 5 μg/mL < MPC@4 ≤ 20 μg/mL) | X (X = MPC@4 ≤ 5 μg/mL) | X (X = MPC@4 ≤ 5 μg/mL) | Y (Y = 5 μg/mL < MPC@4 ≤ 20 μg/mL) | X (X = MPC@4 ≤ 5 μg/mL)
9 | C[C@]1(Cn2ccnn2)[C@H](C(=O)O)N2C(=O)C[C@H]2S1(=O)=O [Tazobactam, reference compound] | X (X = MPC@4 ≤ 5 μg/mL) | X (X = MPC@4 ≤ 5 μg/mL) | X (X = MPC@4 ≤ 5 μg/mL) | X (X = MPC@4 ≤ 5 μg/mL) |  | 
